# Assay results published in the supplement of paper PMC8728848.
# Some of the results follow.
# B1: SSL (Salmo salar) (protein)
# chain: TGAKGAEEGVVPAETRNQCPTGWFQFGSRCFMFVETARSWPLAERHCVSLGANLASVHSSADDQFLQAIAGCKTGAFSTTWIGGFDAVQDRLWFWSDGSEFDYQNWAKGEPNNSGGREPCIVINWGDEYRWNDIKCGNSFPSVCSKRICEIQKN
# What was measured:
# Experiment in all cases: glycan array binding signal (z-score within array); higher = stronger binding
# Conditions in all cases: glycan notation: IUPAC condensed, linker removed
# [1] = biological target: Fuc(a1-2)[GalNAc(a1-3)]Gal(b1-4)GlcNAc(b1-3)Gal(b1-4)GlcNAc
# Method in brief: (§1)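 The binding signal is a Z-score computed within each array and averaged over linkers. Arrays of the same protein sequence at different concentrations or buffers were also averaged together. Data originate from 3228 arrays in the Consortium for Functional Glycomics database, kept only where the protein sequence was available.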
# [2] = biological target: Fuc(a1-2)[GalNAc(a1-3)]Gal(b1-4)GlcNAc(b1-3)Gal(b1-4)GlcNAc(b1-3)Gal(b1-4)GlcNAc
# Method in brief: as §1
# [3] = biological target: Fuc(a1-2)[GalNAc(a1-3)]Gal(b1-4)[Fuc(a1-3)]GlcNAc
# Method in brief: as §1
# [4] = biological target: Fuc(a1-2)[GalNAc(a1-4)]Gal(b1-4)GlcNAc
# Method in brief: as §1
# [5] = biological target: Fuc(a1-2)[GalNAc(b1-3)]Gal
# Method in brief: as §1
# [6] = biological target: Fuc(a1-3)GlcNAc
# Method in brief: as §1
# [7] = biological target: Fuc(a1-3)[Gal(b1-4)]Glc6S
# Method in brief: as §1
# [8] = biological target: Fuc(a1-3)[Gal(b1-4)]GlcNAc
# Method in brief: as §1
# [9] = biological target: Fuc(a1-3)[Gal(b1-4)]GlcNAc(b1-2)Man(a1-3)[Fuc(a1-3)[Gal(b1-4)]GlcNAc(b1-2)Man(a1-6)]Man(b1-4)GlcNAc(b1-4)GlcNAc
# Method in brief: as §1
# [10] = biological target: Fuc(a1-3)[Gal(b1-4)]GlcNAc(b1-3)Gal(b1-3)[Fuc(a1-4)]GlcNAc
# Method in brief: as §1
# [11] = biological target: Fuc(a1-3)[Gal(b1-4)]GlcNAc(b1-3)GalNAc
# Method in brief: as §1
# [12] = biological target: Fuc(a1-3)[Gal(b1-4)]GlcNAc(b1-4)Gal(b1-4)[Fuc(a1-3)]GlcNAc
# Method in brief: as §1
# [13] = biological target: Fuc(a1-3)[Gal(b1-4)]GlcNAc(b1-4)Gal(b1-4)[Fuc(a1-3)]GlcNAc(b1-4)Gal(b1-4)[Fuc(a1-3)]GlcNAc
# Method in brief: as §1
# [14] = biological target: Fuc(a1-3)[Gal(b1-4)]GlcNAc(b1-6)[Gal(b1-3)GlcNAc(b1-3)]Gal(b1-4)Glc
# Method in brief: as §1
# [15] = biological target: Fuc(a1-3)[Gal(b1-4)]GlcNAc6S
# Method in brief: as §1
# [16] = biological target: Fuc(a1-3)[Gal3S(b1-4)]GlcNAc
# Method in brief: as §1
# [17] = biological target: Fuc(a1-3)[Gal3S(b1-4)]GlcNAc6S
# Method in brief: as §1
# [18] = biological target: Fuc(a1-3)[GalNAc(b1-4)]GlcNAc
# Method in brief: as §1
# [19] = biological target: Fuc(a1-4)GlcNAc
# Method in brief: as §1
# [20] = biological target: Fuc(b1-3)GlcNAc
# Method in brief: as §1
# [21] = biological target: Gal(a1-2)Gal
# Method in brief: as §1
# [22] = biological target: Gal(a1-3)Gal
# Method in brief: as §1
# [23] = biological target: Gal(a1-3)Gal(b1-3)GlcNAc
# Method in brief: as §1
# [24] = biological target: Gal(a1-3)Gal(b1-3)GlcNAc(b1-2)Man(a1-3)[Gal(a1-3)Gal(b1-3)GlcNAc(b1-2)Man(a1-6)]Man(b1-4)GlcNAc(b1-4)GlcNAc
# Method in brief: as §1
# [25] = biological target: Gal(a1-3)Gal(b1-3)[Fuc(a1-4)]GlcNAc(b1-2)Man(a1-3)[Gal(a1-3)Gal(b1-3)[Fuc(a1-4)]GlcNAc(b1-2)Man(a1-6)]Man(b1-4)GlcNAc(b1-4)GlcNAc
# Method in brief: as §1
# [26] = biological target: Gal(a1-3)Gal(b1-4)Glc
# Method in brief: as §1
# [27] = biological target: Gal(a1-3)Gal(b1-4)GlcNAc
# Method in brief: as §1
# [28] = biological target: Gal(a1-3)Gal(b1-4)GlcNAc(b1-3)GalNAc
# Method in brief: as §1
# [29] = biological target: Gal(a1-3)Gal(b1-4)[Fuc(a1-3)]GlcNAc
# Method in brief: as §1
# [30] = biological target: Gal(a1-3)Gal(b1-4)[Fuc(a1-3)]GlcNAc(b1-2)Man(a1-3)[Gal(a1-3)Gal(b1-4)[Fuc(a1-3)]GlcNAc(b1-2)Man(a1-6)]Man(b1-4)GlcNAc(b1-4)GlcNAc
# Method in brief: as §1
# [31] = biological target: Gal(a1-3)GalNAc
# Method in brief: as §1
# [32] = biological target: Gal(a1-3)[Gal(a1-4)]Gal(b1-4)GlcNAc
# Method in brief: as §1
# [33] = biological target: Gal(a1-4)Gal(b1-3)GlcNAc(b1-2)Man(a1-3)[Gal(a1-4)Gal(b1-3)GlcNAc(b1-2)Man(a1-6)]Man(b1-4)GlcNAc(b1-4)GlcNAc
# Method in brief: as §1
# [34] = biological target: Gal(a1-4)Gal(b1-4)Glc
# Method in brief: as §1
# [35] = biological target: Gal(a1-4)Gal(b1-4)GlcNAc
# Method in brief: as §1
# [36] = biological target: Gal(a1-4)Gal(b1-4)GlcNAc(b1-2)Man(a1-3)[Gal(a1-4)Gal(b1-4)GlcNAc(b1-2)Man(a1-6)]Man(b1-4)GlcNAc(b1-4)GlcNAc
# Method in brief: as §1
# [37] = biological target: Gal(a1-4)Gal(b1-4)GlcNAc(b1-3)Gal(b1-4)Glc
# Method in brief: as §1
# [38] = biological target: Gal(a1-4)GlcNAc
# Method in brief: as §1
# [39] = biological target: Gal(a1-6)Glc
# Method in brief: as §1
# [40] = biological target: Gal(b1-2)Gal
# Method in brief: as §1
# [41] = biological target: Gal(b1-3)Gal
# Method in brief: as §1
# [42] = biological target: Gal(b1-3)Gal(b1-4)GlcNAc
# Method in brief: as §1
# [43] = biological target: Gal(b1-3)Gal(b1-4)GlcNAc(b1-2)Man(a1-3)[Gal(b1-3)Gal(b1-4)GlcNAc(b1-2)Man(a1-6)]Man(b1-4)GlcNAc(b1-4)GlcNAc
# Method in brief: as §1
# [44] = biological target: Gal(b1-3)GalNAc
# Method in brief: as §1
# [45] = biological target: Gal(b1-3)GalNAc(a1-3)[Fuc(a1-2)]Gal(b1-4)Glc
# Method in brief: as §1
binder,measurement,setting,value
B1,glycan array binding signal (z-score),[1],-0.182
same,glycan array binding signal (z-score),[2],-0.178
same,glycan array binding signal (z-score),[3],-0.141
same,glycan array binding signal (z-score),[4],-0.171
same,glycan array binding signal (z-score),[5],-0.158
same,glycan array binding signal (z-score),[6],-0.147
same,glycan array binding signal (z-score),[7],-0.131
same,glycan array binding signal (z-score),[8],-0.14
same,glycan array binding signal (z-score),[9],-0.138
same,glycan array binding signal (z-score),[10],-0.176
same,glycan array binding signal (z-score),[11],-0.124
same,glycan array binding signal (z-score),[12],-0.111
same,glycan array binding signal (z-score),[13],-0.175
same,glycan array binding signal (z-score),[14],-0.183
same,glycan array binding signal (z-score),[15],-0.165
same,glycan array binding signal (z-score),[16],-0.17
same,glycan array binding signal (z-score),[17],-0.149
same,glycan array binding signal (z-score),[18],-0.151
same,glycan array binding signal (z-score),[19],-0.181
same,glycan array binding signal (z-score),[20],-0.167
same,glycan array binding signal (z-score),[21],-0.143
same,glycan array binding signal (z-score),[22],-0.153
same,glycan array binding signal (z-score),[23],-0.145
same,glycan array binding signal (z-score),[24],-0.144
same,glycan array binding signal (z-score),[25],-0.169
same,glycan array binding signal (z-score),[26],-0.132
same,glycan array binding signal (z-score),[27],-0.16
same,glycan array binding signal (z-score),[28],-0.151
same,glycan array binding signal (z-score),[29],-0.164
same,glycan array binding signal (z-score),[30],-0.154
same,glycan array binding signal (z-score),[31],-0.164
same,glycan array binding signal (z-score),[32],-0.169
same,glycan array binding signal (z-score),[33],-0.176
same,glycan array binding signal (z-score),[34],-0.17
same,glycan array binding signal (z-score),[35],-0.166
same,glycan array binding signal (z-score),[36],-0.138
same,glycan array binding signal (z-score),[37],-0.132
same,glycan array binding signal (z-score),[38],-0.159
same,glycan array binding signal (z-score),[39],-0.164
same,glycan array binding signal (z-score),[40],-0.112
same,glycan array binding signal (z-score),[41],-0.165
same,glycan array binding signal (z-score),[42],-0.163
same,glycan array binding signal (z-score),[43],-0.181
same,glycan array binding signal (z-score),[44],-0.162
same,glycan array binding signal (z-score),[45],-0.165
